{
  "source": "PubChem BioAssay AID463173",
  "about": "(ICCB-Longwood Screening Facility, Harvard Medical School, 2010)",
  "note": "Screen size: about 52,000 compounds; about 1,700 (3.3%) were called active. Rule as the data show it: active = survival mostly below about 52% (no sharp cut-off); inactive = mostly above about 56%. The list shows a part of the results.",
  "data": [
    {"test_system": "Wild type", "test": "S. aureus survival, RN4220 and DeltatarO strains – OD600, teichoic acid synthesis inhibitors, primary screen (AID 463173)", "details": "S. aureus RN4220 wild type/DeltatarO growth, OD600, 18 h, stronger effect = lower value, screened at 18.75 µg/mL (by protocol)", "values": [
      {"molecule": "CC1CCCN(Cc2cn3c(-c4cccc(Br)c4)nnc3s2)C1", "note": "(stereo not given)", "survival": "inactive: 71%"},
      {"molecule": "O=C(NCCc1ccc(Cl)cc1)c1ccc(Cn2c(=O)c3cccn3c3cccnc32)cc1", "survival": "inactive: 84%"},
      {"molecule": "CCOc1ccc(C(=O)NCCc2sc3nc(-c4ccc(Cl)cc4)nn3c2C)cc1OCC", "survival": "inactive: 82%"},
      {"molecule": "COc1cccc(CNC(=O)c2nn(-c3ccccc3Cl)nc2CO)c1", "survival": "inactive: 92%"},
      {"molecule": "Cc1ccccc1C(=O)NCc1nc2cccnc2n1Cc1ccccc1", "survival": "inactive: 51%"},
      {"molecule": "CC(C(=O)Nc1cc(C(F)(F)F)ccc1Cl)n1nnc2sc3c(c2c1=O)CCCC3", "note": "(stereo not given)", "survival": "inactive: 71%"},
      {"molecule": "Cc1ccc2oc(-c3ccc(C)c(NC(=O)c4ccc(C(C)(C)C)cc4)c3)nc2c1", "survival": "inactive: 125%"},
      {"molecule": "CCOc1ccccc1C(=O)Oc1c(Sc2ccccc2)c(C)nn1C(C)(C)C", "survival": "inactive: 64%"},
      {"molecule": "COc1ccc(S(=O)(=O)c2c(Nc3ccc(F)cc3)sc(C(=O)c3ccc4c(c3)OCO4)c2N)cc1", "survival": "inactive: 135%"},
      {"molecule": "Cc1ccc(-c2csc(=Nc3ccccc3)n2Cc2ccc3c(c2)OCO3)cc1C", "survival": "inactive: 91%"},
      {"molecule": "CCN1CCN(C(c2ccccc2)c2sc3nc(-c4ccco4)nn3c2O)CC1", "note": "(stereo not given)", "survival": "inactive: 83%"},
      {"molecule": "CCCn1c(C(O)c2cc(OC)c(OC)c(OC)c2)nc2ccccc21", "note": "(stereo not given)", "survival": "inactive: 111%"},
      {"molecule": "COc1ccccc1C(=O)n1nc(-c2ccco2)nc1NCc1ccc(Cl)cc1", "survival": "inactive: 77%"},
      {"molecule": "COc1ccc(N2CCN(C(=O)c3ccc4c(c3)N(Cc3ccc(F)cc3)C(=O)c3ccccc3S4=O)CC2)cc1", "note": "(stereo not given)", "survival": "inactive: 139%"},
      {"molecule": "N#Cc1nc2c(nc1C#N)-c1ccccc1C2=O", "survival": "inactive: 74%"},
      {"molecule": "COc1ccccc1NC(=O)c1c(NCc2ccc(C)o2)sc2c1CCC(C)C2", "note": "(stereo not given)", "survival": "inactive: 97%"},
      {"molecule": "COCCc1nn2c(=O)cc(COC(=O)COc3ccc(F)cc3)nc2s1", "survival": "inactive: 120%"},
      {"molecule": "COc1ccc(-c2cn3c(n2)sc2cc(C(=O)NCCCN4CCCCCC4)ccc23)cc1", "survival": "inactive: 66%"},
      {"molecule": "CCCC(=O)Nc1ccc(NC(=O)c2ccc3c(c2)OCO3)cc1", "survival": "inactive: 116%"},
      {"molecule": "CCCOC(=O)c1c(NC(=O)C2c3ccccc3Oc3ccccc32)sc2c1CCC(C)C2", "note": "(stereo not given)", "survival": "inactive: 80%"},
      {"molecule": "N#C/C(=C\\c1cn(CCOc2ccccc2)c2ccccc12)C(=O)N1CCCC1", "survival": "inactive: 121%"},
      {"molecule": "Nc1cc(N)nc(SCC(=O)Nc2ccccc2)n1", "survival": "inactive: 108%"},
      {"molecule": "CCC(O)c1cc2c(cc1NC(=O)c1cccc(Br)c1)OCCO2", "note": "(stereo not given)", "survival": "inactive: 71%"},
      {"molecule": "N#Cc1nc(-c2ccc(COc3ccccc3)o2)oc1NCc1ccccc1", "survival": "inactive: 86%"},
      {"molecule": "Cc1ccc(CNC(=O)CSc2nc(=O)[nH]c3c2CCCC3)cc1", "survival": "inactive: 81%"},
      {"molecule": "CN(C)CCCN(C(=O)c1cccs1)c1nc2ccc(F)cc2s1", "survival": "inactive: 76%"},
      {"molecule": "O=C(CN1C(=O)CCc2cc(S(=O)(=O)N3CCOCC3)ccc21)Nc1cccc(Cl)c1", "survival": "inactive: 63%"},
      {"molecule": "CC1(C)Nc2ccccc2C(=O)N1c1ccccc1", "survival": "inactive: 108%"},
      {"molecule": "Cc1nc2ccccc2n1CCc1nc2c3ccccc3nc(SCC(=O)Nc3ccc(Br)cc3F)n2n1", "survival": "inactive: 68%"},
      {"molecule": "COc1ccc(-c2nc3ccccc3o2)cc1NC(=O)C(C)Oc1ccc(Cl)cc1Cl", "note": "(stereo not given)", "survival": "active: 8%"},
      {"molecule": "CC(C)C12CN3CC(C(C)C)(CN(C1)C3c1ccc(Cl)cc1)C2=O", "note": "(stereo not given)", "survival": "inactive: 62%"},
      {"molecule": "CN1CCN(c2oc(-c3ccc(COc4ccc(Cl)cc4)o3)nc2C#N)CC1", "survival": "inactive: 59%"},
      {"molecule": "COc1ccc(NC(=O)Cn2cnc3sc(C)c(S(=O)(=O)N4CCN(C)CC4)c3c2=O)cc1Cl", "survival": "inactive: 155%"},
      {"molecule": "CCCSc1ncc(Cl)c(C(=O)N(Cc2ccc(N(C)C)cc2)C2CCS(=O)(=O)C2)n1", "note": "(stereo not given)", "survival": "inactive: 103%"},
      {"molecule": "CCOC(=O)CNC(=O)N1CCc2cc(S(=O)(=O)N3CCC(C)CC3)ccc21", "survival": "inactive: 71%"},
      {"molecule": "CCOC(=O)c1ccc(N2C(=O)c3n[nH]c(C)c3C2c2ccc(C(C)(C)C)cc2)cc1", "note": "(stereo not given)", "survival": "inactive: 81%"},
      {"molecule": "CNC(=O)C1CCC(Cn2c(=O)[nH]c3ccsc3c2=O)CC1", "note": "(stereo not given)", "survival": "inactive: 80%"},
      {"molecule": "Cc1ccccc1-n1c(/C=C/c2c(C)n(C)c3ccccc23)nc2ccccc2c1=O", "survival": "inactive: 66%"},
      {"molecule": "CN(c1ccc(C(=O)NCC2CCCO2)cc1)S(C)(=O)=O", "note": "(stereo not given)", "survival": "inactive: 104%"},
      {"molecule": "CC(C)(C)OC(=O)N1CCC(c2c(C(=O)N3CCN(c4ncccn4)CC3)cnn2-c2ccccc2)CC1", "survival": "inactive: 87%"},
      {"molecule": "Cc1ccc(NS(=O)(=O)c2ccc3c(c2)NC(=O)CCS3)cc1C", "survival": "inactive: 63%"},
      {"molecule": "COc1ccc2[nH]c(=O)c(CNCc3ccccc3)cc2c1", "survival": "inactive: 133%"},
      {"molecule": "Cc1cccc(OC(=O)c2cc(-c3ccc4c(c3)OCCO4)on2)c1", "survival": "active: -7%"},
      {"molecule": "CCOC(=O)c1cccc(NC(=O)c2cc(CN3CCOCC3)on2)c1", "survival": "inactive: 71%"},
      {"molecule": "CCOC(=O)c1ccc(NC(=O)COCc2cc(-c3ccc4c(c3)OCO4)on2)cc1", "survival": "inactive: 88%"},
      {"molecule": "CCN(CC)S(=O)(=O)c1ccc(C(=O)Nc2nc3c(Cl)cc(Cl)cc3s2)cc1", "survival": "inactive: 130%"},
      {"molecule": "CC(=O)N1CCc2c(sc3c2c(=O)n(-c2ccccc2)c(=O)n3CC(=O)Nc2ccccc2C)C1", "survival": "inactive: 94%"},
      {"molecule": "CCOc1ccc(NS(=O)(=O)c2ccc3[nH]cc(C(=O)N(C)Cc4ccccc4)c(=O)c3c2)cc1", "survival": "active: 1%"},
      {"molecule": "COc1ccc2c(c1)CC(NC(=O)Nc1c(C)cc(C)cc1C)CO2", "note": "(stereo not given)", "survival": "inactive: 88%"},
      {"molecule": "Cc1ccc(OC(=O)c2cc(-c3ccc4c(c3)OCCO4)on2)cc1C", "survival": "active: -7%"},
      {"molecule": "COc1ccc(NC(=O)c2oc3ccccc3c2NC(=O)c2cc3ccccc3o2)cc1", "survival": "inactive: 88%"},
      {"molecule": "Cc1ccccc1S(=O)(=O)Cc1ccc(C(=O)NC2CCCCC2)o1", "survival": "inactive: 119%"},
      {"molecule": "CCOc1ccc(NC(=O)CSc2nnc3scc(-c4ccc(Cl)cc4)n23)cc1", "survival": "inactive: 74%"},
      {"molecule": "CCOc1cccc2cc(-c3nc4ccc(C(=O)O)cc4[nH]3)c(=O)oc12", "survival": "inactive: 88%"},
      {"molecule": "Cc1cccc(-n2c3nc(=O)[nH]c(=O)c-3cc3c(Cl)cccc32)c1C", "survival": "inactive: 128%"},
      {"molecule": "COc1ccc(C)cc1S(=O)(=O)N1CCN(c2cccc(Cl)c2)CC1", "survival": "inactive: 73%"},
      {"molecule": "COc1cc2oc(=O)c(CC(=O)N3CCCCC3)c(C)c2cc1Cl", "survival": "inactive: 84%"},
      {"molecule": "CC(=O)Nc1ccc(C2Sc3ccccc3NC3=C2C(=O)c2ccccc23)cc1", "note": "(stereo not given)", "survival": "inactive: 119%"},
      {"molecule": "CCOC(=O)c1ccc2oc(=O)n(Cc3ccccc3)c2c1", "survival": "inactive: 68%"},
      {"molecule": "Cc1ccc(C)c(CN2C(=O)c3ccccc3S(=O)(=O)c3ccc(C(=O)N4CCCCCC4)cc32)c1", "survival": "inactive: 88%"},
      {"molecule": "O=C(COc1ccc(F)cc1)Nc1ccc2nc(SCC(=O)N3CCc4ccccc43)sc2c1", "survival": "inactive: 82%"},
      {"molecule": "Cc1cc(C)c(NC(=O)c2cc3sc(Cl)cc3n2C)c(C)c1", "survival": "inactive: 109%"},
      {"molecule": "COc1ccccc1CNC(=O)c1ccc(N2CCCC2)c(NC(=O)NCCC(C)C)c1", "survival": "inactive: 110%"},
      {"molecule": "COc1cccc(NC(=O)CSc2ncc(S(=O)(=O)c3ccc(C)c(C)c3)c(=O)[nH]2)c1", "survival": "inactive: 82%"},
      {"molecule": "Cc1oc2ncn(CC(C)C)c(=O)c2c1C(=O)NCCCN1CCCCC1", "survival": "inactive: 73%"},
      {"molecule": "Cc1cccc(N2C(=O)CS/C2=N\\NC(=O)c2cccnc2)c1C", "survival": "inactive: 107%"},
      {"molecule": "CCCNc1ncccc1C(N)=O", "survival": "inactive: 103%"},
      {"molecule": "CC(=O)c1ccc(N2CCN(S(=O)(=O)c3ccc(-c4cc(C(F)(F)F)on4)s3)CC2)cc1", "survival": "inactive: 72%"},
      {"molecule": "Cc1ccccc1OCC(=O)OCc1cc(=O)n2nc(C3CCCCC3)sc2n1", "survival": "inactive: 87%"},
      {"molecule": "Cc1csc2nc(COc3ccccc3NC(=O)c3ccco3)cc(=O)n12", "survival": "inactive: 127%"},
      {"molecule": "CSc1cccc(NC(=O)Cn2c3ncccc3c(=O)n2-c2ccc(C)cc2)c1", "survival": "inactive: 119%"},
      {"molecule": "CCc1c(-c2ccccc2)nc2ccccc2c1C(=O)NCCc1ccccc1", "survival": "inactive: 79%"},
      {"molecule": "COc1cc(NC(=O)CCc2nc(-c3cccs3)no2)cc(OC)c1OC", "survival": "inactive: 89%"},
      {"molecule": "Cc1ccc2c(=O)cc(C(=O)Nc3cccc(Cl)c3C)oc2c1C", "survival": "inactive: 86%"},
      {"molecule": "CCCCCOC(=O)CSc1ncnc2c1sc1nc(N3CCOCC3)c3c(c12)CCCC3", "survival": "inactive: 61%"},
      {"molecule": "COc1ccc(OCCCCn2c(-c3ccc(Cl)cc3)nc3ccccc3c2=O)cc1", "survival": "inactive: 38%"},
      {"molecule": "Cn1c(=O)c2c(-c3ccccc3Cl)n(-c3cc(Cl)ccc3O)cc2n(C)c1=O", "survival": "inactive: 69%"},
      {"molecule": "Cc1cc(Nc2cccc(C)c2C)n2cnnc2n1", "survival": "inactive: 101%"},
      {"molecule": "Cc1ccc(C(=O)CC2(O)C(=O)N(CCc3ccccc3)c3ccc(Cl)cc32)cc1", "note": "(stereo not given)", "survival": "active: 3%"},
      {"molecule": "COCCn1ccc2c(OCC(=O)Nc3cccc(OC)c3)cccc2c1=O", "survival": "inactive: 90%"},
      {"molecule": "Cc1cccc(NC(=O)CSc2nc(-c3ccccc3)cn2-c2ccccc2)c1C", "survival": "inactive: 69%"},
      {"molecule": "COc1ccc(Nc2ncc(C(=O)N3CCN(c4cccc(Cl)c4)CC3)c3ccccc23)cc1", "survival": "inactive: 73%"},
      {"molecule": "Cc1ccc(C)c(-n2c(CCC(=O)O)ccc2-c2ccc(Cl)cc2)c1", "survival": "inactive: 87%"},
      {"molecule": "CC(C)CC(C(=O)NCc1ccc(F)cc1)N1Cc2ccccc2C1=O", "note": "(stereo not given)", "survival": "inactive: 72%"},
      {"molecule": "CCc1ccccc1NC(=O)CN1CCC(NC(=O)NC2CCCCC2)CC1", "survival": "inactive: 102%"},
      {"molecule": "CCOc1ccc(-c2nc(SCC(=O)Nc3ccc(C)c(C)c3)n3[nH]c(=O)cc3n2)cc1", "survival": "inactive: 77%"},
      {"molecule": "Cc1ccc(C(C)C)c(OCC(=O)Nc2ccc(C(=O)OC3CCCCC3)cc2)c1", "survival": "active: 6%"},
      {"molecule": "Cc1nc(C)c(-c2ccc(SCC(=O)Nc3ccc(C)c(F)c3)nn2)s1", "survival": "inactive: 74%"},
      {"molecule": "COc1ccc(CNC(=O)c2c(O)nc3cc(C)ccn3c2=O)cc1", "survival": "inactive: 88%"},
      {"molecule": "CCc1ccc2ncc3c(-c4ccc(F)cc4)nn(CC(=O)NCc4ccccc4)c3c2c1", "survival": "inactive: 88%"}
    ]}
  ]
}
